By IC50 is meant the dose at which the fit gives 50% viability; fits outside the tested doses are given as limits. AUC is the area under the same curve over the 256-fold range up to the top dose, as a fraction; the more sensitive the line, the further below 1. For some of these results: A top dose marked as inferred was derived from the fitted curves, not read from the paper. For some of these results: Where an entry number is given, a second screen of the drug exists; the two often differ.
Tests used:
Test in all cases: Viability of human cancer cell lines after 72 h of drug (GDSC screen)
[1] = compound: C/C(O)=C(\C#N)C(=O)Nc1cc(Br)ccc1Br [LFM-A13]; settings: top dose 16 µM; top dose inferred
Protocol: (§1)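 Human cancer cell lines in 384-well plates, medium with 10% serum, drug for 72 h over a 256-fold dose range (nine 2-fold or five 4-fold steps up to the top dose). Adherent lines were fixed and stained with the nucleic acid dye Syto60, suspension lines read with resazurin; signal relative to control wells, capped at 0 and 100%. One two-parameter sigmoid per drug and line, fitted in a mixed model over all curves with the slope shared within a line.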

[2] = compound: Nc1ccn([C@@H]2O[C@H](CO)[C@@H](O)C2(F)F)c(=O)n1 [Gemcitabine]; settings: top dose 1.024 µM
Protocol: as §1

[3] = compound: Cc1cn(-c2cc(NC(=O)c3ccc(C)c(Nc4nccc(-c5cccnc5)n4)c3)cc(C(F)(F)F)c2)cn1 [Nilotinib]; settings: top dose 2 µM
Protocol: as §1

[4] = compound: CC(O)(CS(=O)(=O)c1ccc(F)cc1)C(=O)Nc1ccc(C#N)c(C(F)(F)F)c1 [Bicalutamide]; settings: top dose inferred
Protocol: as §1

[5] = compound: S=C(NCc1ccc2c(c1)OCO2)N1CCN(c2ncnc3c2oc2ccccc23)CC1 [MP470]; settings: top dose 20 µM; top dose inferred
Protocol: as §1

[6] = compound: NC(=O)c1cccc(-c2cc(Nc3ccc(OC(F)(F)F)cc3)ncn2)c1 [GNF-2]; settings: top dose 1.28 µM; top dose inferred
Protocol: as §1

[7] = compound: CC(C)c1ccccc1Cc1cc(C(=O)Nc2ccc(S(=O)(=O)c3ccccc3C(C)(C)C)cc2)c(O)c(O)c1O [TW-37]; settings: top dose 5 µM
Protocol: as §1

[8] = compound: CCNC(=O)c1noc(-c2cc(C(C)C)c(O)cc2O)c1-c1ccc(CN2CCOCC2)cc1 [AUY922]; settings: top dose 0.256 µM; top dose inferred
Protocol: as §1

[9] = compound: Cc1ccc(Nc2cc(-c3cccc(N4C(=O)c5ccccc5C4=O)c3)ncn2)cc1NS(C)(=O)=O [KIN001-270]; settings: top dose 20 µM; top dose inferred
Protocol: as §1

[10] = compound: O=S(=O)(c1ccccc1)N(CC(F)(F)F)c1ccc(C(O)(C(F)(F)F)C(F)(F)F)cc1 [T0901317]; settings: top dose 10.24 µM; top dose inferred
Protocol: as §1

[11] = top dose 1.024 µM, screen: GDSC drug entry 150
[12] = top dose 10 µM, screen: GDSC drug entry 1502

| Cell Line | AUC [1] | IC50 [1] [nM] | AUC [2] | IC50 [2] [nM] | AUC [3] | IC50 [3] [nM] | AUC [4, 11] | IC50 [4, 11] [nM] | AUC [4, 12] | IC50 [4, 12] [nM] | AUC [5] | IC50 [5] [nM] | AUC [6] | IC50 [6] [nM] | AUC [7] | IC50 [7] [nM] | AUC [8] | IC50 [8] [nM] | AUC [9] | IC50 [9] [nM] | AUC [10] | IC50 [10] [nM] |
| --- | --- | --- | --- | --- | --- | --- | --- | --- | --- | --- | --- | --- | --- | --- | --- | --- | --- | --- | --- | --- | --- | --- |
| NCI-H446 (small cell lung carcinoma, semi-adherent) | 0.972 | > 16000 | 0.914 | > 1020 | 0.985 | > 2000 | 0.985 | > 1020 | 0.964 | > 10000 | 0.971 | > 20000 | 0.98 | > 1280 | 0.737 | 1570 | 0.835 | 187 | 0.889 | > 20000 | 0.985 | > 10200 |
| LB2241-RCC (kidney, adherent) | 0.971 | > 16000 | 0.042 | < 4 | 0.748 | 708 | 0.984 | > 1020 | 0.973 | > 10000 | 0.873 | > 20000 | 0.889 | > 1280 | 0.419 | 183 | 0.602 | 31.7 | 0.974 | > 20000 | 0.98 | > 10200 |
| SUP-B15 (lymphoblastic leukaemia, suspension) | 0.963 | > 16000 | 0.123 | 4.28 | 0.282 | 31.2 | 0.984 | > 1020 |  |  | 0.714 | 4890 | 0.798 | 579 | 0.532 | 381 | 0.516 | 17.6 | 0.951 | > 20000 | 0.894 | > 10200 |
| NB5 (neuroblastoma, adherent) | 0.983 | > 16000 | 0.711 | 255 | 0.985 | > 2000 | 0.984 | > 1020 | 0.981 | > 10000 | 0.308 | 360 | 0.987 | > 1280 | 0.539 | 400 | 0.65 | 42 | 0.975 | > 20000 | 0.959 | > 10200 |
| A253 (head and neck, adherent) | 0.934 | > 16000 | 0.472 | 53.8 | 0.989 | > 2000 | 0.988 | > 1020 | 0.985 | > 10000 | 0.952 | > 20000 | 0.989 | > 1280 | 0.48 | 277 | 0.637 | 37.7 | 0.983 | > 20000 | 0.97 | > 10200 |
| NCI-H510A (small cell lung carcinoma, semi-adherent) | 0.975 | > 16000 | 0.473 | 54.4 | 0.989 | > 2000 | 0.987 | > 1020 |  |  |  |  | 0.981 | > 1280 | 0.531 | 376 | 0.792 | 106 | 0.958 | > 20000 | 0.989 | > 10200 |
| WIL2-NS (lymphoid neoplasm, suspension) | 0.974 | > 16000 | 0.03 | < 4 | 0.991 | > 2000 | 0.992 | > 1020 |  |  |  |  | 0.992 | > 1280 | 0.758 | 1450 | 0.302 | 5.04 | 0.954 | > 20000 | 0.966 | > 10200 |
| KARPAS-231 (B-cell leukaemia, suspension) | 0.918 | 14300 | 0.015 | < 4 | 0.951 | > 2000 | 0.994 | > 1020 | 0.992 | > 10000 | 0.89 | 13900 | 0.993 | > 1280 | 0.463 | 254 | 0.552 | 21.4 |  |  | 0.072 | 40.1 |
| BC-1 (B-cell lymphoma, suspension) | 0.954 | > 16000 | 0.246 | 13.7 | 0.991 | > 2000 | 0.991 | > 1020 | 0.942 | > 10000 |  |  | 0.991 | > 1280 | 0.599 | 559 | 0.544 | 20.7 | 0.936 | > 20000 | 0.87 | 7260 |
| IST-SL2 (small cell lung carcinoma, suspension) | 0.947 | > 16000 | 0.23 | 10.6 | 0.97 | > 2000 | 0.988 | > 1020 | 0.964 | > 10000 | 0.639 | 3020 | 0.989 | > 1280 | 0.56 | 454 | 0.581 | 26.6 |  |  | 0.887 | > 10200 |
| H9 (lymphoid neoplasm, suspension) | 0.989 | > 16000 | 0.087 | < 4 | 0.992 | > 2000 | 0.992 | > 1020 | 0.982 | > 10000 |  |  | 0.992 | > 1280 | 0.545 | 405 | 0.529 | 18.9 | 0.991 | > 20000 | 0.924 | > 10200 |
| MY-M12 (leukaemia, suspension) | 0.916 | > 16000 | 0.404 | 33.7 | 0.28 | 27.1 | 0.97 | > 1020 |  |  |  |  | 0.961 | > 1280 | 0.528 | 375 | 0.45 | 11.5 | 0.878 | > 20000 | 0.278 | 137 |
| GI-ME-N (neuroblastoma, adherent) | 0.943 | > 16000 | 0.89 | > 1020 | 0.965 | > 2000 | 0.977 | > 1020 | 0.94 | > 10000 |  |  | 0.969 | > 1280 | 0.543 | 426 | 0.587 | 30.3 | 0.905 | > 20000 | 0.914 | > 10200 |

Reference: the supplement of paper PMC4967469
